Data published in the BET-seq Pho4 binding data (Le et al. 2018).
The list shows a part of the results. These are noisy estimates, calculated here from bound and input reads.

Target: T1, Pho4 (S. cerevisiae) (UniProt P07270)
T1 sequence: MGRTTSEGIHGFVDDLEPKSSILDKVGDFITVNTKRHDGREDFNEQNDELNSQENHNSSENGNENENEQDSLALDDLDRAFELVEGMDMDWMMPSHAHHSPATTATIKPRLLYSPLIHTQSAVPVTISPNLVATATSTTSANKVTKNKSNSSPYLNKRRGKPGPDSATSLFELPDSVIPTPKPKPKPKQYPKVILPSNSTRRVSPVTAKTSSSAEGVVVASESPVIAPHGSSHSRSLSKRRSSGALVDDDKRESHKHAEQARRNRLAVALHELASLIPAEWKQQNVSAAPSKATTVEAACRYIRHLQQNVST
Assay: relative binding free energy (BET-seq); higher = weaker binding
Conditions: reference: library average

Sequence	relative binding free energy [kcal/mol]
TTGATCACGTGGTTTG	0.11
GGTTTCACGTGTTATA	0.29
TAGTGCACGTGGGGCA	-0.21
GGATTCACGTGTCAGG	0.35
GTGATCACGTGGGACT	0.12
GTCGGCACGTGAGCTG	0.14
TTAGGCACGTGATCGG	-0.09
ATGGGCACGTGCGCGT	-0.24
GTCATCACGTGTTTTT	0.21
ATGAACACGTGATGTT	0.1
TTACGCACGTGGTTGA	-0.21
AAGATCACGTGCTGGG	0.11
GTCGGCACGTGCGAGT	0.1
CTTAGCACGTGGAGAG	-0.01
AAGGGCACGTGATGCG	-0.14
TGATTCACGTGGTTTG	0.25
GTACACACGTGAGTGG	0.28
TTGGTCACGTGAGTTC	0.35
GTGTACACGTGCGGGA	0
GGTGTCACGTGCGAGG	0.23
TGATACACGTGTGTTC	-0.02
TGACGCACGTGAGTAT	0.21
ATCATCACGTGGGTTG	-0.14
ATCGACACGTGGGGCT	0.03
TGTGTCACGTGCGTAG	-0.06

Sequence	relative binding free energy [kcal/mol]
GAGGGCACGTGAGCGT	0.1
GAGGTCACGTGCTGAT	0.12
GGATTCACGTGAGTGT	0.47
GGTCTCACGTGGGTTA	0.02
GTCTGCACGTGGCGTG	-0.12
TGATGCACGTGTTGTT	0
TGTGACACGTGCGATT	0.04
TAAGACACGTGTAAGG	0.07
TGCCTCACGTGGTGTT	0.08
CGATTCACGTGAGTTT	0.31
ATTTTCACGTGATGAT	0.33
CTATGCACGTGCGGTT	-0.05
GTTGTCACGTGTGACG	0.2
TTCGTCACGTGATTTT	0.3
TGGAACACGTGTTCGG	-0.07
GTAGCCACGTGCTTGT	0.05
TACTTCACGTGATGGT	0.35
TATTACACGTGCTGTA	0.06
TTTGTCACGTGCCATG	0.06
GATCTCACGTGTTGTT	0.28
TGGAACACGTGCGAGG	-0.05
GTCGTCACGTGAAGGG	0.29
AGATTCACGTGGGGAA	0.23
GTTTGCACGTGCGGGG	-0.02
TGATTCACGTGGCGTG	0.21

Sequence	relative binding free energy [kcal/mol]
AGGATCACGTGTAATG	0.2
GTTAACACGTGGGGCG	-0.14
GACAACACGTGGGTTG	0.02
AAGATCACGTGGGTGT	0.02
TGTCGCACGTGCAGGG	-0.16
AGAGGCACGTGTGCAT	-0.13
AAGTTCACGTGGTGAT	0.14
TTGGTCACGTGCGGAC	-0.01
AGGTACACGTGCTTGA	0
TGGCGCACGTGGTGAT	-0.32
TGTTGCACGTGCGGCG	-0.19
AATATCACGTGACGGG	0.25
AGCGCCACGTGTTGGG	-0.04
TGAGTCACGTGCGCTG	-0.03
TATCACACGTGTTTTT	0.16
TGGTTCACGTGCGGGA	0.29
GGCGACACGTGGATGG	0.11
TTGACCACGTGGGCGT	-0.24
AGTTGCACGTGGCATT	-0.04
AATTTCACGTGGGGTT	0.2
TGTGACACGTGAGTCG	0.25
TGATACACGTGTCTGG	0.1
TTATTCACGTGAAATA	0.26
